Assay results: PubChem BioAssay AID624417 (National Center for Advancing Translational Sciences (NCATS), 2012)
Values joined by “and” are separate entries in the source; they are usually repeats but may differ in a detail not shown here. Equal values may be shown once. About 6,400 (1.6%) of roughly 410,000 compounds were called active. This list was built around the results that the source calls inconclusive (neither active nor inactive); the mix of calls is not that of the screen. Calls follow the shape of the dose curve; as a rule, active = well fitted inhibition curve with a large enough effect; inconclusive = small, poorly fitted or top-dose-only effect; inactive = no such curve, though single readings can be large or run the other way. A potency beside an inconclusive call is a rough fit, not a confirmed value.

target: Glucagon-like peptide 1 receptor (Homo sapiens) (UniProt P43220); assay: qHTS of GLP-1 Receptor Inverse Agonists (Inhibition Mode); details: HEK293 GLP-1R CRE-luciferase, luminescence, 24 h, GLP-1R form is constitutively active; activity change, negative = inhibition: at 38.3 µM (top of the series) unless noted; also: nearly all actives have a fitted effect of over 55% in size
Outline: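 GLP-1R inverse agonism mode: basal reporter luminescence in engineered HEK293 cells measured after one day of compound exposure at 37 deg C, with a 12 min room-temperature detection step.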
% is scaled to controls: 0 for no effect and ±100 for the full control effect; potency is read from the fitted curve at half-maximal effect; tags tell the direction and shape of the fitted curve.

Sequence of UniProt P43220 (P43220 whole entry, looked up): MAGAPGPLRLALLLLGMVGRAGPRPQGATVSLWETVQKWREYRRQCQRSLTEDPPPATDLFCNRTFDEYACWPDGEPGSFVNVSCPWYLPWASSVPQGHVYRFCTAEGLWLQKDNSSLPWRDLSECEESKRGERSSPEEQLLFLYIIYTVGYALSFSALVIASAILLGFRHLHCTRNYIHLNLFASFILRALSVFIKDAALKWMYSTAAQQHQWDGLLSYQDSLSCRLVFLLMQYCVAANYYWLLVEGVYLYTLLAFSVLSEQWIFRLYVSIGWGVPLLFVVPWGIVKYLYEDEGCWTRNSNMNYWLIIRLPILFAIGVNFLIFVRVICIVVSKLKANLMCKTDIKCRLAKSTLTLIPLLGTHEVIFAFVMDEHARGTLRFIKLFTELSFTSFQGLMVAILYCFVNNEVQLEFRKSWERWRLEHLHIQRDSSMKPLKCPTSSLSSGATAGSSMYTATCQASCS

Potency, inconclusive:
COc1ccc(Cl)cc1NC(=O)Cn1c(=O)n(CCCC(=O)NCCc2ccc(OC)c(OC)c2)c(=O)c2ccccc21 28.2 µM [inhibitor, single point]
CCN(C(=O)COC(=O)C1CCN(S(=O)(=O)c2c(Cl)cccc2Cl)CC1)C1CCCCC1 7.08 µM [inhibitor, partial curve, poor fit]
Cc1ccccc1S(=O)(=O)N1C[C@H]2CON(C)[C@H]2C[C@H]1c1cccc(-c2ccc(C#N)cc2)c1 31.6 µM [inhibitor, single point]
O=C(c1ccccc1)c1ccc(-n2cnnc2)c([N+](=O)[O-])c1 3.16 µM [inhibitor, full curve]
COCCNc1nc(-c2ccccc2)nc2c1oc1ccccc12 12.6 µM [inhibitor, single point]
Cc1ccc(N(CC(=O)Nc2ccc3c(c2)OCCO3)S(=O)(=O)c2c(C)noc2C)cc1 14.1 µM [inhibitor, partial curve, poor fit]
COc1cc(OC)cc(C(=O)N(Cc2nc(-c3cccc(C)c3)no2)C(C)C)c1 2.82 µM [inhibitor, full curve]
CC1CC(C)CN(CCCNC(=O)c2ccc(CNS(=O)(=O)c3ccc(F)cc3)cc2)C1 (stereo not given) 28.2 µM [inhibitor, single point]
COc1cccc(-c2ncn(CCc3ccccc3OC)c2C(C)C)c1 11.2 µM [inhibitor, single point]
COc1ccc(NC(=O)c2ccc(Br)c(S(=O)(=O)N3CCOCC3)c2)cc1 2 µM [inhibitor, full curve]
NNC(=O)c1cc(C2CC2)nc2ccc(Br)cc12 28.2 µM [inhibitor, single point]
CCC(C)N1CCN(C(=O)C2CCN(S(=O)(=O)c3c(C)noc3/C=C/c3ccco3)CC2)CC1 (stereo not given) 11.2 µM [inhibitor, partial curve, poor fit]
CCc1ccc(S(=O)(=O)NCc2nc3cccnc3n2Cc2ccccc2Cl)cc1 10 µM [inhibitor, single point]
CC12CCC(C(=O)N(Cc3ccccc3)Cc3ccccc3)(OC1=O)C2(C)C (stereo not given) 7.94 µM [inhibitor, partial curve, poor fit]
COc1cc(OC)nc(C(NC(=O)C2CCN(Cc3ccc(Oc4ccccc4)cc3)CC2)c2ccccc2C)n1 (stereo not given) 11.2 µM [inhibitor, single point]
COc1cc(NC(=O)NC(C)c2c(-n3cccc3)sc3c2CCN(C)C3)cc(OC)c1 (stereo not given) 12.6 µM [inhibitor, single point]
CCc1ccc2oc(-c3cccc(NC(=O)C(C)(C)Oc4ccc(Br)cc4)c3)nc2c1 10 µM [inhibitor, single point]
Cc1ccc(S(=O)(=O)c2nc(-c3ccc(F)cc3)oc2SCC(=O)c2ccccc2)cc1 22.4 µM [inhibitor, single point]
O=CN/N=C/c1c(O)ccc2ccccc12 3.16 µM [inhibitor, full curve, poor fit]
C=CCN(c1ccccc1)S(=O)(=O)c1cccc(C(=O)Nc2ccncc2)c1 10 µM [inhibitor, partial curve, poor fit]
Brc1ccc2nc(C3CCCCC3)c(Cc3ccccc3)n2c1 11.2 µM [inhibitor, single point]
O=C(COc1ccc([N+](=O)[O-])cc1)NNC(=O)Nc1ccc([N+](=O)[O-])cc1 3.16 µM [inhibitor, full curve, poor fit]
O=C(COCc1ccccc1)N[C@@H]1c2ccccc2CC[C@@H]1OCc1ccccc1 12.6 µM [inhibitor, partial curve, poor fit]
CC1(c2nnc(-c3cccc(Cl)c3)o2)CC(c2c(Cl)cccc2Cl)=NO1 (stereo not given) 28.2 µM [inhibitor, single point]
CCOc1ccc(/C=N/NC(=O)COc2ccccc2-c2ccccc2)cc1 10 µM [inhibitor, partial curve, poor fit]
CCS(=O)(=O)c1nc(S(=O)(=O)c2ccc(C)cc2)c(NC(C)c2ccccc2)s1 (stereo not given) 28.2 µM [inhibitor, single point]
Cc1ccc(C2CC(c3cccc(Br)c3)Nc3nnnn32)cc1 (stereo not given) 11.2 µM [inhibitor, partial curve, poor fit]
CC(=O)c1sc(N/N=C\c2c(O)ccc3ccccc23)nc1C 3.55 µM [inhibitor, partial curve]
CCOc1ccc(-n2cc(-c3ccccc3)c3c(N4CCC(C)CC4)ncnc32)cc1 1.58 µM [inhibitor, partial curve, poor fit]
CCOC(=O)C1=C(C)Nc2ccccc2N=C1NC(=O)C(c1ccccc1)c1ccccc1 22.4 µM [inhibitor, partial curve, poor fit]
CSc1ccc(-c2nnn(CC(=O)NCc3ccccc3)n2)cc1 10 µM [inhibitor, partial curve, poor fit]
C(=N\n1cnnc1)/c1ccccc1OCCOc1ccccc1 28.2 µM [inhibitor, single point]
CCSC1=NCCN1C(=O)C(C)(C)Oc1ccc(Cl)cc1 14.1 µM [inhibitor, single point]
CCC(C(=O)OC(C)C(=O)Nc1ccc(Cl)cn1)c1ccccc1 (stereo not given) 11.2 µM [inhibitor, single point]
Oc1ccc(C[C@H]2CNC(=S)N2CC2CCCN2C[C@H](Cc2ccc(O)cc2)N2C[C@H](Cc3ccc(O)cc3)N(CC3CCCCC3)C2=S)cc1 (stereo not given in full) 3.98 µM [inhibitor, full curve, poor fit]
Cc1cccc(NC(=O)CSc2nc3ccccc3nc2N2CCCC2)c1 10 µM [inhibitor, partial curve, poor fit]
S=C1NCCN1CC1CCN(CCC23CC4CC(CC(C4)C2)C3)CC1 12.6 µM [inhibitor, partial curve, poor fit]
CCCCCCSc1cc(-c2nc3cnccn3c2NCCCC)ccc1OC 14.1 µM [inhibitor, single point]
CSc1ccccc1C(=O)C1CCCN(S(=O)(=O)N(C)C)C1 (stereo not given) 5.01 µM [inhibitor, full curve, poor fit]
CCOC(=O)c1ccc(N2C(=O)c3n[nH]c(-c4cccs4)c3C2c2cccc(OC)c2)cc1 (stereo not given) 12.6 µM [inhibitor, partial curve, poor fit]
CN(C)S(=O)(=O)N(CC(=O)NCCSCc1cccc(Cl)c1)c1ccccc1 28.2 µM [inhibitor, single point]
CCO/C=N/Nc1nc(C(F)(F)F)nc2c1cnn2Cc1ccccc1 28.2 µM [inhibitor, single point]
Cc1ccc(S(=O)(=O)N2CCN(C(=O)C3CCN(C(=O)c4ccc(F)cc4)CC3)CC2)c(C)c1 28.2 µM [inhibitor, partial curve, poor fit]
COc1ccc2c(c1)c(C(C)=O)c(C)n2-c1ccccc1OC 2 µM [inhibitor, partial curve, poor fit]
O=C(c1ccc(C(F)(F)F)cc1)N1CCC(=O)N([C@H](COCc2ccc(C(F)(F)F)cc2)Cc2ccccc2)CC1 2.51 µM [inhibitor, full curve, poor fit]
CCn1c(C)c(C)c2cc(C(=O)N3CCN(c4cccc(C)c4C)CC3)ccc21 28.2 µM [inhibitor, single point] and 10 µM [inhibitor, partial curve, poor fit]

Activity change, negative = inhibition, inactive:
CCN(CC)C(=S)SCC(=O)Nc1nc(=O)c2ccccc2s1 5.43%
CCOc1ccc(CNC(=O)c2cc3c(s2)-c2ccccc2OC3)cc1 -27.7%
COC1CCCCC1NS(=O)(=O)c1ccc(Cl)cc1 (stereo not given) -0.116%
CCCOc1ccc(CNC(=O)Cn2cc3c(n2)-c2c(oc(C(=O)N4CCOCC4)c2C)CC3)cc1 0.973%
Clc1cccc(Cl)c1CNc1ccc(N2CCCC2)cc1 -15.9%
N#C/C(=C/c1ccc(N2CCCCC2)o1)c1cccc(F)c1 0%
Cc1ccc(Nc2c(-c3ccc(C)cc3)nc3ccc(C)cn23)cc1 14.6%
Cc1[nH]n(-c2ccccc2)c(=O)c1C1(C(F)(F)F)C(=O)N(c2ccccc2)C2=C1C(=O)CC(C)(C)C2 (stereo not given) 8.94%
CN1CCN(C2CN(Cc3cn(Cc4cccc(C(F)(F)F)c4)nn3)S(=O)(=O)C2)CC1 (stereo not given) 27.6%
Cc1ccc2c(COC(=O)c3n[nH]c4ccccc34)cc(=O)oc2c1 19.5%
COc1cc2cc(CN(CCN3CCCC3)C(=O)Nc3ccc(F)cc3)c(=O)[nH]c2cc1OC -3.44%
CCOc1ccc(-n2c(=O)c3c4c(sc3n(CC(=O)NC(C)CC)c2=O)CCC4)cc1 (stereo not given) 5.32%
O=C(NCCC1CCCCN1S(=O)(=O)c1ccc(F)cc1)C(=O)NC1CC1 (stereo not given) -11.8%
Cc1cccnc1NC(=O)CSc1nnc(COc2ccc(C(C)C)cc2)n1C 1.37%
